{"source": "PubChem BioAssay AID1461", "about": "(National Center for Advancing Translational Sciences (NCATS), 2008)", "note": "Out of some 220,000 compounds screened, about 2,300 (1%) were called active. This list was built around the results that the source calls inconclusive (neither active nor inactive); the mix of calls is not that of the screen. Calls come from the whole dose curve; as a rule, active = well fitted inhibition curve with a large enough effect; inconclusive = small, poorly fitted or top-dose-only effect, or effect the other way; inactive = no such curve, though single readings can be large or run the other way. No potency is given beside an inconclusive call; the fits are too rough. % is set by controls: 0 for no effect and ±100 for the full control effect; potency is the fitted concentration of half-maximal effect; tags give direction and shape of the fitted curve."}
{"molecular_target": "Neuropeptide S receptor (Homo sapiens) (UniProt Q6W5P4)", "sequence (Q6W5P4 whole entry, looked up)": "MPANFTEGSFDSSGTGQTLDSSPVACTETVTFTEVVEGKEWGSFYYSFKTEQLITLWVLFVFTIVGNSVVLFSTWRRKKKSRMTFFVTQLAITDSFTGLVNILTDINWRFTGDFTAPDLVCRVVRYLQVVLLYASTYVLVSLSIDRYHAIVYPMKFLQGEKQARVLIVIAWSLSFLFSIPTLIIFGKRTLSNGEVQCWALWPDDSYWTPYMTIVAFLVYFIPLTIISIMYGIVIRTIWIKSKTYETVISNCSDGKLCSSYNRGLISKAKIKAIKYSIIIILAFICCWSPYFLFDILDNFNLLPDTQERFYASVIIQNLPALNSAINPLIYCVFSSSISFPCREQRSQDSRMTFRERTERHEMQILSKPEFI", "experiment": "qHTS Assay for Antagonists of the Neuropeptide S Receptor: cAMP Signal Transduction; note: nearly all actives have a fitted effect of over 50% in size", "details": "CHO-NPSR cells, cAMP TR-FRET, antagonist mode; activity change, negative = inhibition: at 38.3 µM (top of the series) unless noted"}
{"smiles": "O=C(NC(=S)Nc1ccccn1)c1ccccc1", "Potency": "inconclusive [inhibitor, single point]"}
{"smiles": "Cc1ccc(N2CCN(c3ccc(C)cc3)C2c2cccnc2)cc1", "Potency": "inconclusive [inhibitor, partial curve]"}
{"smiles": "CCOC(=O)C1CCN(c2nc(C)nc3c2oc2ccccc23)CC1", "Potency": "inconclusive [inhibitor, partial curve]"}
{"smiles": "O=[N+]([O-])c1ccc(/C=N/Nc2nc(N3CCCCCC3)nc(N3CCCCCC3)n2)o1", "Potency": "active: 6.31 µM"}
{"smiles": "CC(/C=N/n1c(-c2cccnc2)n[nH]c1=S)=C\\c1ccccc1", "Potency": "inconclusive [inhibitor, partial curve]"}
{"smiles": "Cc1cc2c3c(c1C)C(=O)C(=O)N3C(C)(C)CC2C", "note": "(stereo not drawn)", "Potency": "inconclusive [activator, single point]"}
{"smiles": "CCOC(=O)c1csc(-n2nc(C)cc2C(F)(F)F)n1", "Potency": "inactive"}
{"smiles": "Fc1ccc(-c2nn(-c3ccccc3)cc2CNCc2ccccc2)cc1", "Potency": "inconclusive [inhibitor, single point]"}
{"smiles": "C/C(N)=C(/C#N)C(=O)CSc1nnc(-c2ccccc2Br)o1", "Potency": "inconclusive [inhibitor, single point]"}
{"smiles": "Oc1ccccc1-c1nnc(COc2ccc(Cl)cc2Cl)o1", "Potency": "inconclusive [inhibitor, full curve, poor fit]"}
{"smiles": "CCOc1ccccc1C1C2C(=O)N(c3ccccc3)C(=O)C2ON1c1ccccc1", "note": "(stereo not drawn)", "Potency": "inactive"}
{"smiles": "COc1ccc(C2=NN(CN3C(=O)C(=O)c4ccccc43)C(c3ccc(C)cc3)C2)cc1", "note": "(stereo not drawn)", "Potency": "inconclusive [inhibitor, partial curve]"}
{"smiles": "O=C(N/N=C/c1ccc([N+](=O)[O-])o1)c1cc2c(ccc3ccccc32)o1", "Potency": "inconclusive [activator, single point]"}
{"smiles": "COc1ccc(CN(Cc2cc3ccc(C)cc3[nH]c2=O)Cc2nnnn2C2CCCC2)cc1", "Potency": "inconclusive [inhibitor, partial curve]"}
{"smiles": "CC(=O)N1CCc2c(sc(NC(=O)c3ccc4c(c3)OCCO4)c2C#N)C1", "Potency": "inconclusive [activator, single point]"}
{"smiles": "O=C(c1cccs1)N1CCc2c([nH]c3ccccc23)C1c1ccccn1", "note": "(stereo not drawn)", "Potency": "inconclusive [activator, single point]"}
{"smiles": "COc1ccc(N2C(=O)C3C(C2=O)C2C=CC3C23CC3)c([N+](=O)[O-])c1", "note": "(stereo not drawn)", "Potency": "inactive"}
{"smiles": "Cc1ccc(-c2c[n+](CC(=O)Nc3c(C)cccc3C)c3n2CCC3)cc1", "Potency": "inconclusive [activator, single point]"}
{"smiles": "CC(C)NC(=O)Cn1c(SCC(=O)c2ccc(F)cc2)nc2ccccc21", "Potency": "inactive"}
{"smiles": "COc1cc(/C=C2\\SC(=O)N(CC(=O)Nc3cccc(C)c3)C2=O)cc([N+](=O)[O-])c1O", "Potency": "inactive"}
{"smiles": "COc1cccc(C(=O)N(Cc2ccco2)Cc2cc3cccc(C)c3[nH]c2=O)c1", "Potency": "inactive"}
{"smiles": "COc1ccc(NC(=O)c2nc[nH]c2C(=O)N2CCN(C(=O)OC(C)(C)C)CC2)cc1", "Potency": "inactive"}
{"smiles": "CCn1c(SCC(=O)Nc2nc3ccc(OC)cc3s2)nc2c1c(=O)n(C)c(=O)n2C", "Potency": "inconclusive [inhibitor, partial curve]"}
{"smiles": "O=[N+]([O-])c1ccc(O)c(-c2nc(-c3ccccc3)c(-c3cccs3)[nH]2)c1", "Potency": "inconclusive [inhibitor, single point]"}
{"smiles": "COc1ccc(-c2cc(C(F)(F)F)nc(SCC(N)=O)n2)cc1", "Potency": "inconclusive [activator, single point]"}
{"smiles": "COc1ccc(C2C(C(C)=O)=C(C)N=c3s/c(=C\\c4ccco4)c(=O)n32)c(OC)c1", "note": "(stereo not drawn)", "Potency": "inconclusive [inhibitor, partial curve]"}
{"smiles": "Cc1cccn2cc(-c3ccccc3)nc12", "Potency": "inconclusive [activator, partial curve]"}
{"smiles": "CCC(c1nnnn1Cc1ccco1)N(CCc1ccccc1)Cc1cc2cccc(C)c2[nH]c1=O", "note": "(stereo not drawn)", "Potency": "inconclusive [inhibitor, single point]"}
{"smiles": "COc1ccc(S(=O)(=O)N(CC(=O)Nc2ccc(S(=O)(=O)N3CCOCC3)cc2)Cc2ccc(F)cc2)cc1", "Potency": "inactive"}
{"smiles": "Cc1cccc(NC(=O)c2nc[nH]c2C(=O)N[C@@H](CC(C)C)C(=O)OCc2ccccc2)c1", "Potency": "inconclusive [inhibitor, single point]"}
{"smiles": "Cc1ccc(-c2nc(-c3cccnc3)no2)cc1", "Potency": "inconclusive [inhibitor, full curve, poor fit]"}
{"smiles": "COc1cccc(Nc2nc(NCC3CCCO3)c3ccccc3n2)c1", "note": "(stereo not drawn)", "Potency": "inconclusive [inhibitor, single point]"}
{"smiles": "CCc1ccc2c(c1)c1nnc(NN)nc1n2C", "activity change, negative = inhibition": "inactive: -3.02% [at 7.67 µM]"}
{"smiles": "O=C(NCC(c1cccnc1)N1CCN(c2ccc(F)cc2)CC1)c1ccc(F)cc1", "note": "(stereo not drawn)", "Potency": "inactive"}
{"smiles": "COc1ccc(CCN(Cc2cc3cc(C)cc(C)c3nc2Cl)C(=O)C2CC2)cc1", "Potency": "inconclusive [inhibitor, partial curve]"}
{"smiles": "CCOC(=O)c1sc(SC)c2c1CCCC2=O", "Potency": "inconclusive [activator, partial curve]"}
{"smiles": "Cc1ccc(S(=O)(=O)N2CCN(CC(=O)N/N=C\\c3ccc(Cl)c([N+](=O)[O-])c3)CC2)cc1", "Potency": "inactive"}
{"smiles": "O=c1c2c3nc4ccccc4nc3n(Cc3ccccc3)c2ncn1Cc1ccco1", "Potency": "active: 10 µM"}
{"smiles": "c1cncc(C(c2nnnn2C2CCCCC2)N2CCCCC2)c1", "note": "(stereo not drawn)", "Potency": "inactive"}
{"smiles": "CS(=O)(=O)c1cc([N+](=O)[O-])c(Sc2nc3ccccc3[nH]2)c([N+](=O)[O-])c1", "Potency": "inconclusive [inhibitor, partial curve]"}
{"smiles": "Cc1cc(C)n(-c2nc(NCCN(C)C)c3c4c(sc3n2)CCCC4)n1", "Potency": "inconclusive [inhibitor, single point]"}
{"smiles": "CCOC(=O)c1c(C)[nH]c(N=Nc2cccc(C)c2)c1C", "Potency": "inconclusive [inhibitor, partial curve]"}
{"smiles": "Cc1cc(-c2ccc(Cl)cc2Cl)c(C#N)c(=O)[nH]1", "Potency": "inactive"}
